In PubChem BioAssay (Tox21):
Where “and” joins values, the source holds several entries; their conditions need not be identical. Identical values can stand only once. Inconclusive results, whose numbers are uncertain, are shown with a selection of clear calls. For some of these results: Where the call is inconclusive, the potency comes from a doubtful curve fit. Calls of active or inactive are those of the source. Unless noted, calls follow the shape of the full dose curve.

Assays:
[1] = target: Peroxisome proliferator-activated receptor gamma (Homo sapiens) (UniProt P37231); assay: qHTS assay to identify small molecule antagonists of the peroxisome proliferator-activated receptor gamma (PPARg) signaling pathway (AID 743191); conditions: HEK293H PPARg-UAS-bla, beta-lactamase ratio, antagonist, 17 h; also: nearly all actives have a fitted effect of over 30% in size; also: potency is read from the fitted curve at half-maximal effect; as to ratio activity, negative = inhibition: % is scaled to controls: 0 for no effect and ±100 for the full control effect
How it was run: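 GeneBLAzer PPARg UAS-bla HEK293H cells, 5 h post-plating, exposed to compounds 17 h at 37C. LiveBLAzer B/G FRET substrate added for 1 h at room temperature; beta-lactamase reporter read by fluorescence intensity.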

[2] = qHTS assay to identify small molecule antagonists of the peroxisome proliferator-activated receptor gamma (PPARg) signaling pathway - cell viability counter screen (AID 743194; active = well fitted curve in the direction sought with a large enough effect in the repeat runs; inconclusive = weak or mixed curves; inactive = no such curve, though single readings can be large; an effect the other way counts as inactive or inconclusive; also: potency is read from the fitted curve at half-maximal effect; nearly all actives have a fitted effect of over 55% in size); conditions: PPARg-bla HEK293H viability, CellTiter-Glo luminescence, 17 h, co-treated with 50 nM rosiglitazone; activity change, negative = cytotoxicity: at 62.6 µM (top of the series)
How it was run: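 Cytotoxicity counter screen in PPARg-bla HEK293H cells, same wells as reporter assay. Compounds plus 50 nM rosiglitazone (final) for 17 h at 37 C, then viability read by CellTiter-Glo luminescence.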

[3] = qHTS assay for small molecule agonists of the antioxidant response element (ARE) signaling pathway (AID 743202; active = well fitted activation curve with a large enough effect in the signal ratio in the repeat runs, not every such curve was filed as active; inconclusive = weak or mixed curves, or effect the other way; inactive = no such curve, though single readings can be large or run the other way; the % refers to the signal ratio; also: potency is read from the fitted curve at half-maximal effect; as to activation: % is scaled to controls: 0 for no effect and ±100 for the full control effect); conditions: HepG2 ARE-bla reporter, beta-lactamase FRET, 16 h; activation: at 73.3 µM (top of the series) unless noted
How it was run: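 HepG2 ARE-bla cells; 16 h treatment at 37 C; FRET-based beta-lactamase fluorescence read after 2 h substrate incubation at room temperature.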

[4] = qHTS assay to identify small molecule agonists of the peroxisome proliferator-activated receptor delta (PPARd) signaling pathway - cell viability counter screen (AID 743211; active = well fitted curve in the direction sought with a large enough effect in the repeat runs; inconclusive = weak or mixed curves; inactive = no such curve, though single readings can be large; an effect the other way counts as inactive or inconclusive; also: nearly all actives have a fitted effect of over 55% in size; also: potency is read from the fitted curve at half-maximal effect); conditions: PPARd-bla HEK293H viability, CellTiter-Glo luminescence, 17 h; activity change, negative = cytotoxicity: at 62.6 µM (top of the series)
How it was run: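 PPARd-bla HEK293H cells (3000/well) were pre-incubated 5 h at 37 C, then exposed to compound for 17 h at 37 C. After 2 h with LiveBLAzer substrate, CellTiter-Glo was added to the same wells; luminescence read after 30 min at room temperature.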

[5] = qHTS assay to identify small molecule antagonists of the peroxisome proliferator-activated receptor delta (PPARd) signaling pathway - cell viability counter screen (AID 743213; active = well fitted curve in the direction sought with a large enough effect in the repeat runs; inconclusive = weak or mixed curves; inactive = no such curve, though single readings can be large; an effect the other way counts as inactive or inconclusive; also: potency is read from the fitted curve at half-maximal effect; nearly all actives have a fitted effect of over 50% in size); conditions: PPARd-bla HEK293H viability, CellTiter-Glo luminescence, 17 h; viability change, negative = cytotoxic: at 62 µM (top of the series) unless noted
How it was run: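 Cytotoxicity counter screen: CellTiter-Glo luminescence read 30 min after addition, in the same wells as the reporter assay. There, PPARd UAS-bla HEK293H cells (3000/well) were treated 17 h at 37 C with compound and 300 nM L165041.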

[6] = target: Peroxisome proliferator-activated receptor delta (Homo sapiens) (UniProt Q03181); assay: qHTS assay to identify small molecule antagonists of the peroxisome proliferator-activated receptor delta (PPARd) signaling pathway (AID 743215; active = well fitted inhibition curve with a large enough effect in the signal ratio in the repeat runs, not every such curve was filed as active; inconclusive = weak or mixed curves, or effect the other way; inactive = no such curve, though single readings can be large or run the other way; the % refers to the signal ratio;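 also: cells stimulated with agonist L165041 at 300 nM final during compound exposure; potency is read from the fitted curve at half-maximal effect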); conditions: HEK293H PPARd-UAS-bla, beta-lactamase FRET ratio, antagonist, 17 h; ratio activity, negative = inhibition: at 62 µM (top of the series) unless noted
How it was run: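 Cells: HEK293H with a UAS-driven beta-lactamase reporter responsive to PPARd. Compounds were co-added with L165041 (300 nM, final) and incubated 17 h at 37 C before a 2 h room-temperature FRET substrate step and fluorescence reading.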

[7] = qHTS assay to identify small molecule agonists of the farnesoid-X-receptor (FXR) signaling pathway - cell viability counter screen (AID 743218; active = well fitted curve in the direction sought with a large enough effect in the repeat runs; inconclusive = weak or mixed curves; inactive = no such curve, though single readings can be large; an effect the other way counts as inactive or inconclusive; also: potency is read from the fitted curve at half-maximal effect; nearly all actives have a fitted effect of over 45% in size); conditions: FXR-bla HEK293T viability, CellTiter-Glo luminescence, 16 h; viability change, negative = cytotoxic: at 62.6 µM (top of the series) unless noted
How it was run: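 Cells were seeded, left 5 h at 37 C and 5% CO2, then dosed with compound in DMSO for 16 h. After the beta-lactamase FRET read, CellTiter-Glo was added and luminescence measured 30 min later.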

[8] = qHTS assay to identify small molecule antagonists of the farnesoid-X-receptor (FXR) signaling pathway - cell viability counter screen (AID 743221; active = well fitted cell-killing curve with a large enough effect in the repeat runs, not every such curve was filed as active; inconclusive = weak or mixed curves, or effect the other way; inactive = no such curve, though single readings can be large or run the other way; also: potency is read from the fitted curve at half-maximal effect; nearly all actives have a fitted effect of over 50% in size); conditions: FXR-bla HEK293T viability, CellTiter-Glo luminescence, 16 h; activity change, negative = cytotoxicity: at 62.6 µM (top of the series)
How it was run: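 GeneBLAzer FXR-UAS-bla HEK 293T cells, compound plus chenodeoxycholic acid (50 uM final), 16 h at 37 C. CellTiter-Glo added to the same wells after the beta-lactamase read; luminescence read after 30 min at room temperature as viability.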

[9] = target: Bile acid receptor (Homo sapiens) (UniProt Q96RI1); assay: qHTS assay to identify small molecule antagonists of the farnesoid-X-receptor (FXR) signaling pathway (AID 743217; active = well fitted inhibition curve with a large enough effect in the signal ratio in the repeat runs, not every such curve was filed as active; inconclusive = weak or mixed curves, or effect the other way; inactive = no such curve, though single readings can be large or run the other way; the % refers to the signal ratio; also: potency is read from the fitted curve at half-maximal effect; as to activity change, negative = inhibition: % is scaled to controls: 0 for no effect and ±100 for the full control effect); conditions: HEK293T FXR-UAS-bla, beta-lactamase ratio, CDCA-stimulated, 16 h; activity change, negative = inhibition: at 62.6 µM (top of the series) unless noted
How it was run: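 Cells carrying a UAS-driven beta-lactamase reporter (GeneBLAzer FXR-UAS-bla HEK 293T) were plated and rested 5 h at 37 °C. Compounds in DMSO were added alongside chenodeoxycholic acid agonist at 50 uM final and left 16 h at 37 °C before FRET substrate readout.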

[10] = target: Vitamin D3 receptor (Homo sapiens) (UniProt P11473); assay: qHTS assay to identify small molecule antagonists of the vitamin D receptor (VDR) signaling pathway (AID 743223; active = well fitted inhibition curve with a large enough effect in the signal ratio in the repeat runs, not every such curve was filed as active; inconclusive = weak or mixed curves, or effect the other way; inactive = no such curve, though single readings can be large or run the other way; the % refers to the signal ratio; also: % is scaled to controls: 0 for no effect and ±100 for the full control effect); conditions: VDR-UAS-bla HEK293T, beta-lactamase FRET ratio, 16 h; activity change, negative = inhibition: at 61 µM (top of the series) unless noted
How it was run: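 VDR-bla cells were treated with compound plus 3 nM final 1alpha,25-dihydroxyvitamin D3 for 16 h at 37C. Beta-lactamase reporter read by B/G FRET substrate fluorescence after 2 h at room temperature. qHTS format.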

[11] = qHTS assay for small molecule activators of the heat shock response signaling pathway - cell viability counter screen (AID 743209; active = well fitted curve in the direction sought with a large enough effect in the repeat runs; inconclusive = weak or mixed curves; inactive = no such curve, though single readings can be large; an effect the other way counts as inactive or inconclusive; also: potency is read from the fitted curve at half-maximal effect; nearly all actives have a fitted effect of over 50% in size); conditions: HSE-bla HeLa viability, CellTiter-Glo luminescence, 5 h; activity change, negative = cytotoxicity: at 62.6 µM (top of the series)
How it was run: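 Cytotoxicity counter screen run in parallel with the HSE beta-lactamase reporter, using the same wells. HeLa HSE-bla cells received compound for 5 h at 37 C; ATP-based CellTiter-Glo luminescence was measured after 30 min at room temperature.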

[12] = qHTS assay for small molecule activators of the heat shock response signaling pathway (AID 743210; active = well fitted activation curve with a large enough effect in the signal ratio in the repeat runs, with a control signal flat, not every such curve was filed as active; inconclusive = weak or mixed curves; the % refers to the signal ratio; also: potency is read from the fitted curve at half-maximal effect); conditions: HeLa HSE-bla reporter, beta-lactamase ratio, 5 h; activation: at 62.6 µM (top of the series)
How it was run: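 Following overnight attachment, HSE-bla HeLa cells received test compounds for 5 h at 37 C; beta-lactamase activity was then detected via FRET substrate fluorescence.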

[13] = target: Vitamin D3 receptor (Homo sapiens) (UniProt P11473); assay: qHTS assay to identify small molecule agonists of the vitamin D receptor (VDR) signaling pathway (AID 743222); conditions: HEK293T VDR-UAS-bla, beta-lactamase FRET ratio, 16 h; activation: at 63.5 µM (top of the series) unless noted; also: potency is read from the fitted curve at half-maximal effect
How it was run: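 Cells carrying a VDR-driven beta-lactamase reporter are seeded at 2,000 per well and rested 4 h. Compounds in DMSO are added for 16 h at 37C, and FRET substrate fluorescence is measured after 2 h at room temperature.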

[14] = ratio activity, negative = inhibition: at 62.6 µM (top of the series) unless noted
Tags tell the direction and shape of the fitted curve or compound fluorescence and quenching.

UniProt P37231, sequence (P37231 whole entry, looked up): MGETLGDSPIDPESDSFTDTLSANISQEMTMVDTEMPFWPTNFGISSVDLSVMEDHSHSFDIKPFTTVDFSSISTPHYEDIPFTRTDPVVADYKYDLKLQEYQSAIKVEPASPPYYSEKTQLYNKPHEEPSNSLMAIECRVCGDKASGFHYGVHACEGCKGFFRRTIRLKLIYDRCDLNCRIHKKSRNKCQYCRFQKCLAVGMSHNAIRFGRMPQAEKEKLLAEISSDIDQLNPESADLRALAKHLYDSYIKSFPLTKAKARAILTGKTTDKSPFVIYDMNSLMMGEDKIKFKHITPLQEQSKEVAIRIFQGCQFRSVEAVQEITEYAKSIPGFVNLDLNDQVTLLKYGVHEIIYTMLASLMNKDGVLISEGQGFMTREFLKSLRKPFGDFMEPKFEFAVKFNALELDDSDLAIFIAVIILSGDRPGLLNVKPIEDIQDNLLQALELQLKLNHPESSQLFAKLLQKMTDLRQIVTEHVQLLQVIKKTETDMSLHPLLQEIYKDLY
UniProt P11473, sequence (P11473 whole entry, looked up): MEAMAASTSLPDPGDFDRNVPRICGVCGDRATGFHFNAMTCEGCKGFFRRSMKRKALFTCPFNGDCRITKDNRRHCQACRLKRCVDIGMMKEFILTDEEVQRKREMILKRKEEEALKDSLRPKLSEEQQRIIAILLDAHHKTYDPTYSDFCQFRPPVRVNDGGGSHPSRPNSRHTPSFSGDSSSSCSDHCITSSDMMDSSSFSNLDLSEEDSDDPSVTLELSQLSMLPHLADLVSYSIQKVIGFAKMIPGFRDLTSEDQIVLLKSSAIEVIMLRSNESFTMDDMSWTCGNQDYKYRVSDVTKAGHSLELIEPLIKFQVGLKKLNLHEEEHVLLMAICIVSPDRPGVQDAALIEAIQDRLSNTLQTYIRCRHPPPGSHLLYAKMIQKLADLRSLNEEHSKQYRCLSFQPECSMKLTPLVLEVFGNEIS
UniProt Q96RI1, sequence (Q96RI1 whole entry, looked up): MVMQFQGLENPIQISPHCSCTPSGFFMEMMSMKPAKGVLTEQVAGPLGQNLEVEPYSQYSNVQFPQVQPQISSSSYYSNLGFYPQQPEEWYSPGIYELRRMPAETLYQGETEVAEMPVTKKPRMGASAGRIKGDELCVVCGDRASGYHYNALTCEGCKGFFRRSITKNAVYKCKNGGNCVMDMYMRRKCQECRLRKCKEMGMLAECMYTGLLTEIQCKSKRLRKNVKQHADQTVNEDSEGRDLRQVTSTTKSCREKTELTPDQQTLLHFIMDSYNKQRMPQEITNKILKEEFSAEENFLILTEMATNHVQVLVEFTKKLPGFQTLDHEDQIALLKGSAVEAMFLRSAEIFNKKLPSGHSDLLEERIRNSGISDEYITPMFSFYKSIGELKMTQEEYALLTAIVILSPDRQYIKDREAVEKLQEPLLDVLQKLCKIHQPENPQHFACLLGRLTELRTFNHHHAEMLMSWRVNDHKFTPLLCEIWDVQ
UniProt Q03181, sequence (Q03181 whole entry, looked up): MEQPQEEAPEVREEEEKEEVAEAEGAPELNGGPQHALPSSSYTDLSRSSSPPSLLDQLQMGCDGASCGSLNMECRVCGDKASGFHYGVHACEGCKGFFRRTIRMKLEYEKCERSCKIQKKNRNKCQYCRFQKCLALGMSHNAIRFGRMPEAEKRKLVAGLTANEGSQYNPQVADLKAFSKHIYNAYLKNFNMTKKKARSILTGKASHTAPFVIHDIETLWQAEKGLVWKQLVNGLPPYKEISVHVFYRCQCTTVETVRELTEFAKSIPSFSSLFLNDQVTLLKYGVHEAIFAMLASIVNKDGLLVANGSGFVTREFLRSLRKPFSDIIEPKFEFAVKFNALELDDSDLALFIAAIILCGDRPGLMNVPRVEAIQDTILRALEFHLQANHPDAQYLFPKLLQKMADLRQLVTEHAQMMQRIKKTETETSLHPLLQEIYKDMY

CN(C)CCOC(c1ccccc1)c1ccc(Br)cc1 (stereo not drawn)
inconclusive: Potency [1, 14] 33.5 µM [inhibitor] | Potency [2] 2.66 µM [cytotoxic, single point] | Potency [3] 26.6 µM | Potency [4] 29.8 µM [cytotoxic] | Potency [5] 13.3 µM [cytotoxic, full curve] | Potency [6] 11.9 µM [rising, single point] | Potency [7] 13.3 µM [cytotoxic, partial curve, poor fit] | Potency [8] 26.6 µM [falling, partial curve, poor fit]

Nc1cccc(N)c1
inactive: ratio activity, negative = inhibition ([1]; at 62.6 µM (top of the series)) -5.76%
inconclusive: ratio activity, negative = inhibition [1, 14] -28.1% and -12.9% | Potency [3] 30.6 µM | activation [3] -1.38% | Potency [9] 54.8 µM [inhibitor, single point] | activity change, negative = inhibition [10] 9.64%

CC1(C)CC(=O)CC(C)(C)N1
inconclusive: Potency [2] 0.433 µM [cytotoxic, full curve, poor fit] | Potency [5] 3.86 µM [cytotoxic, full curve, poor fit] | activity change, negative = inhibition [10] -0.547%
inactive: Potency [1, 14]

COc1ccc2c(c1)c(CC(=O)OC/C=C(\C)CC/C=C(\C)CCC=C(C)C)c(C)n2C(=O)c1ccc(Cl)cc1
inconclusive: ratio activity, negative = inhibition [1, 14] -0.136% | Potency [3] 11.9 µM | Potency [11] 33.5 µM [cytotoxic, single point] | Potency [12] 9.44 µM | activity change, negative = inhibition [9] -1.69% | Potency [13] 37.6 µM [falling, single point]
inactive: Potency [10]

O=C1CC2(CCCC2)CC(=O)N1
inactive: Potency [1, 14] | Potency [3] | Potency [4]
